# Measurements published in the supplement of paper PMC12217912.
# This is one part of the list. Sequences were assembled here from the parent chain. Values near 0.05 are background.
# B1: TEV protease; numbered along this chain (parent)
# chain: MGESLFKGPRDYNPISSSICHLTNESDGHTTSLYGIGFGPFIITNKHLFRRNNGTLVVQSLHGVFKVKDTTTLQQHLVDGRDMIIIRMPKDFPPFPQKLKFREPQREERICLVTTNFQTKSMSSMVSDTSCTFPSGDGIFWKHWIQTKDGQCGSPLVSTRDGFIVGIHSASNFTNTNNYFTSVPKNFMELLTNQEAQQWVSGWRLNADSVLWGGHKVFMVKPEEPFQPVKEATQL
# Variants of: B1
# Assay: raw area under fraction-flipped curve 0-4 h after induction (AUC4h, not background-subtracted), DNA-recorder readout of cleavage of the substrate (dimensionless); higher = more cleavage of the substrate by the protease variant
# Settings: temperature: 34 °C; time window: 0-4 h after rhamnose induction
# Method: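 In vivo DNA recorder in E. coli TOP10(DE3) ΔrhaA at 34 °C. Each TEVp single-site mutant (parent TEVp 0) is paired with a single-site variant of the 7-mer TEVs (canonical ENLYFQ|S). The substrate sits between flexible linkers in a Bxb1-sfGFP-TEVs-SsrA fusion, so cleavage stabilises Bxb1 and speeds flipping of a recombination array, read by NGS. The value is the raw area under the fraction-flipped curve over 0-4 h after rhamnose induction (AUC4h), with ≥20 reads per time point. It is not background-subtracted; inactive controls average about 0.047.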
# 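Also: Bxb1 expression induced with 0.2% (w/v) L-rhamnose at OD600 near 0.5, cultures sampled hourly, flipped fraction per protease–substrate barcode pair counted by paired-end Illumina sequencing.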
Variant,area with substrate ENLYFQC,area with substrate ENLYFQF,area with substrate ENLYFQI,area with substrate ENLYFQL,area with substrate ENLYFQM,area with substrate ENLYFQR,area with substrate ENLYFQS,area with substrate ENLYFQT,area with substrate ENLYFQW,area with substrate ENLYFQY,area with substrate ENLYFQD,area with substrate ENLYFQE,area with substrate ENLYFQG,area with substrate ENLYFQH,area with substrate ENLYFQK,area with substrate ENLYFQN,area with substrate ENLYFQP,area with substrate ENLYFQQ,area with substrate ENLYFQV
MGESLFKGPRDYNPISSSICHLTNESDGHTTSLYGIGFGPFIITNKHLFRRNNGTLVVQSLHGVFKVKDTTTLQQHLVDGRDMIIIRMPKDFPPFPQKLKFREPQREERICLVTTNFQTKSMSSMVSDTSCTFPSGDGIFWKHWIQTKDGVCGSPLVSTRDGFIVGIHSASNFTNTNNYFTSVPKNFMELLTNQEAQQWVSGWRLNADSVLWGGHKVFMVKPEEPFQPVKEATQL [Q151V],0.0807,0.0644,0.0692,0.06,0.082,0.0628,0.0935,0.0636,0.0793,0.0464,,,,,,,,,
MGESLFKGPRDYNPISSSICHLTNESDGHTTSLYGIGFGPFIITNKHLFRRNNGTLVVQSLHGVFKVKDTTTLQQHLVDGRDNIIIRMPKDFPPFPQKLKFREPQREERICLVTTNFQTKSMSSMVSDTSCTFPSGDGIFWKHWIQTKDGQCGSPLVSTRDGFIVGIHSASNFTNTNNYFTSVPKNFMELLTNQEAQQWVSGWRLNADSVLWGGHKVFMVKPEEPFQPVKEATQL [M83N],0.0532,0.0377,0.0376,0.0471,0.0382,,0.0544,0.0501,0.051,,0.0427,0.0455,0.0421,0.0625,0.043,0.0436,0.0552,,
MGESLFKGPRDYNPISSSICHLTNESDGHTTSLYGIGFGPFIITNKHLFRRNNGTLVVQSLHGVFKVKDTTTLQQHLVDGRDMIIIRMPKDFPPFPQKLPFREPQREERICLVTTNFQTKSMSSMVSDTSCTFPSGDGIFWKHWIQTKDGQCGSPLVSTRDGFIVGIHSASNFTNTNNYFTSVPKNFMELLTNQEAQQWVSGWRLNADSVLWGGHKVFMVKPEEPFQPVKEATQL [K100P],0.121,0.0706,,,0.0927,,0.104,0.0557,0.0516,,0.0753,,,,,0.0879,,,
MGESLFKGPRDYNPISSSICHLTNESDGHTTSLMGIGFGPFIITNKHLFRRNNGTLVVQSLHGVFKVKDTTTLQQHLVDGRDMIIIRMPKDFPPFPQKLKFREPQREERICLVTTNFQTKSMSSMVSDTSCTFPSGDGIFWKHWIQTKDGQCGSPLVSTRDGFIVGIHSASNFTNTNNYFTSVPKNFMELLTNQEAQQWVSGWRLNADSVLWGGHKVFMVKPEEPFQPVKEATQL [Y34M],0.112,,0.0588,0.0684,0.0874,,0.103,,0.057,,0.0394,,0.0911,,0.0764,0.0711,0.0656,,
MGESLFKGPRDYNPISSSICHLTNESDGHTTSLYGIGFGPFIITNKHLFRRNNGTLVVQSLHGVFKVKDTTTLQQHLVDGRDMIIIRMPKDFPPFPQKLKFREPQREERICLVTTNFQTKSMSSMVSDTSCTFPSGDGIFWKHWIQTKDGQCGSPLVSTRDGFIVGIHSASNFTNTNNYFTSVPKNFMELLTNQEALQWVSGWRLNADSVLWGGHKVFMVKPEEPFQPVKEATQL [Q197L],0.125,,,0.0534,0.0894,0.0617,0.105,0.0825,,,0.0803,,0.108,,0.0691,0.0984,,0.0848,
MGESLFKGPRDYNPISSSICHLTNESDGHTTSLYHIGFGPFIITNKHLFRRNNGTLVVQSLHGVFKVKDTTTLQQHLVDGRDMIIIRMPKDFPPFPQKLKFREPQREERICLVTTNFQTKSMSSMVSDTSCTFPSGDGIFWKHWIQTKDGQCGSPLVSTRDGFIVGIHSASNFTNTNNYFTSVPKNFMELLTNQEAQQWVSGWRLNADSVLWGGHKVFMVKPEEPFQPVKEATQL [G35H],0.043,,0.0159,,,,0.0444,,0.04,,0.0529,,,0.0416,0.0397,,0.0485,,
MGESLFKGPRDYNPISSSICHLTNESDGHTTSLYGIGFGPFIITNKHLFRRNNGTLVVQSLHGVFKVKDTTTLQQHLVDGRDMIIIRMPKDFPPFPQKLKFLEPQREERICLVTTNFQTKSMSSMVSDTSCTFPSGDGIFWKHWIQTKDGQCGSPLVSTRDGFIVGIHSASNFTNTNNYFTSVPKNFMELLTNQEAQQWVSGWRLNADSVLWGGHKVFMVKPEEPFQPVKEATQL [R102L],0.0265,,,0.0449,0.0548,0.0498,0.0512,0.0486,,0.0712,0.0404,0.0447,,,0.0136,0.0405,0.0512,,
MGESLFKGPRDYNPISSSICHLTNESDGHTTSLYGIGFGPFIITNKHLFRRNNGTLVVQSLHGVFKVKDTTTLQQHLVDGRDMIIIRMPKDFPPFPQKLKFREPQREERICLVTTNFQTKSMSSMVSDTSCTFPSGDGIFWKHWIQTKDGQCGSPLVSTRDGFIVGIHSASNFTNTNNYFDSVPKNFMELLTNQEAQQWVSGWRLNADSVLWGGHKVFMVKPEEPFQPVKEATQL [T181D],0.0048,,,,,0.0792,0.0554,0.0494,,,,,0.0564,,0.0669,,,,
MGESLFKGPRDYNPISSSICHLTNESDGHTTSLYGIGFGPFIITNKHLFRRNNGTLVVQSLHGVFKVKDTTTLQQHLVDGRDMIIIRMPKDFPPFPQKLKFREPQREERICLVTTNFQTKSMSSMVSDTSCTFPSGDGIFWKHWIQTKFGQCGSPLVSTRDGFIVGIHSASNFTNTNNYFTSVPKNFMELLTNQEAQQWVSGWRLNADSVLWGGHKVFMVKPEEPFQPVKEATQL [D149F],0.102,,0.0538,0.0433,,0.057,0.0816,,0.0614,0.0644,,,0.0762,,0.0353,0.0776,,,0.0505
MGESLFKGPRDYNPRSSSICHLTNESDGHTTSLYGIGFGPFIITNKHLFRRNNGTLVVQSLHGVFKVKDTTTLQQHLVDGRDMIIIRMPKDFPPFPQKLKFREPQREERICLVTTNFQTKSMSSMVSDTSCTFPSGDGIFWKHWIQTKDGQCGSPLVSTRDGFIVGIHSASNFTNTNNYFTSVPKNFMELLTNQEAQQWVSGWRLNADSVLWGGHKVFMVKPEEPFQPVKEATQL [I15R],0.0609,,,0.0442,,0.0425,0.0638,0.0426,,0.0337,,0.0848,0.0474,0.0507,,0.052,,,
MGESLFKGPRDYNPISSSICHLTNESDGHTTSLYGIGFGPFIITNKHLFRRNNGTLVVQSLHGVFKVKDTTTLQQHLVDGRDMIIIRMPKDFPPFPQKLKFREPQREERICLVTTNFQTKSMSSMVSDTSCTFPSGDGIFWKHWIQTKDGQCGSPLVSTRDGFIVGIHSASNFTNTNNYFTSVPKNFMELLTNQEAQQWVSGWRLNADSVLWPGHKVFMVKPEEPFQPVKEATQL [G213P],0.0272,0.0486,,,,,0.058,,,,0.0658,,,,,,0.0571,,
MGESLFKGPRDYNPISSSICHLTNESDGHTTSLYGIGFGPFIITNKHLFRRNNGTLVVQSLHGVFKVKDTTTLQQHLVDGRDMIIIRMPKDFPPFPQKLKFREPQREERICLVTTNFQTKSMSSMVSDTSCTFPSGDGIFWKHWIQTKDGQCGSPLVSTRDGFIVGIHSASNFTNTNNYFTSVPKNFMELLTNQEAQQWVSGWRLNADSVLWGGHKVEMVKPEEPFQPVKEATQL [F218E],0.124,0.0503,0.0628,0.0613,0.0727,0.0553,0.0923,,0.0539,,,0.0646,0.0826,0.0502,0.049,0.0625,,0.0607,0.0405
MGESLFKGPRDYNPISSSICHLTNESDGHTTSLYGIGFGPFIITNKHLFRRNNGTLVVQSLHGVFKVKDTTTLQQHLVDGRDMIIIRMPKDFPPFPQKLKFREPQREERICLVTTNFQTKSMSSMVSDTSCTFPSGDGIFWKHWIQTKDGQCGSPLVSTRDGFIVGIHSASNFTNTNNYFTSVPKNFMELLTNQEAQQWVSGWRPNADSVLWGGHKVFMVKPEEPFQPVKEATQL [L205P],0.0734,,,,0.049,0.0324,0.0682,0.0517,0.0461,,0.0623,,0.0719,0.0643,0.0526,0.0459,0.0588,,
MGESLFKGPRDYNPISSSICHLTNESDGHTTSLYGIGFGPFIITNKHLFRRNNGTLVVQSLHGVFKVKDTTTLQQHLVDGRDMIIIRMPKDFPPFPQKLKFREPQREERICLVTTNFQTKSMSSMVSDTSCTFPSGDGIFWKHWSQTKDGQCGSPLVSTRDGFIVGIHSASNFTNTNNYFTSVPKNFMELLTNQEAQQWVSGWRLNADSVLWGGHKVFMVKPEEPFQPVKEATQL [I145S],0.132,0.119,,,,,0.129,0.0816,,0.0871,0.0717,0.0472,0.0966,0.104,,0.0815,,,0.0597
MGESLFKGPRDYNPISSSICHLTNESDGHTTSLYGIGFGPFIITNKHLFRRNNGTLVVQSLHGVFKVKDTTTLQQHLVDGRDMIIIRMPKDFPPFPQHLKFREPQREERICLVTTNFQTKSMSSMVSDTSCTFPSGDGIFWKHWIQTKDGQCGSPLVSTRDGFIVGIHSASNFTNTNNYFTSVPKNFMELLTNQEAQQWVSGWRLNADSVLWGGHKVFMVKPEEPFQPVKEATQL [K98H],0.12,,0.0661,0.0665,,0.0618,0.104,0.0697,0.0748,0.069,0.0669,,0.0855,,0.0602,0.0791,,,0.0576
MGESLFKGPRDYNPISSSICHLTNESDGHTTSLYGIGFGPFIITNKHLFRRNNGTLVVQSLHGVFKVKDTTTAQQHLVDGRDMIIIRMPKDFPPFPQKLKFREPQREERICLVTTNFQTKSMSSMVSDTSCTFPSGDGIFWKHWIQTKDGQCGSPLVSTRDGFIVGIHSASNFTNTNNYFTSVPKNFMELLTNQEAQQWVSGWRLNADSVLWGGHKVFMVKPEEPFQPVKEATQL [L73A],0.0703,,,0.0558,,0.0686,0.0701,0.062,,,,,0.0597,,0.0583,,,,
MGESLFKGPRDYNPISSSICHLTNESDGHTTSLYGIGFGPFIITNKHLFRRNNGTLVVQSLHGVFKVKDTTLLQQHLVDGRDMIIIRMPKDFPPFPQKLKFREPQREERICLVTTNFQTKSMSSMVSDTSCTFPSGDGIFWKHWIQTKDGQCGSPLVSTRDGFIVGIHSASNFTNTNNYFTSVPKNFMELLTNQEAQQWVSGWRLNADSVLWGGHKVFMVKPEEPFQPVKEATQL [T72L],0.112,,0.0312,,0.0886,,0.102,0.0827,0.0614,,,,0.092,,0.0544,,,,
MGESLFKGPRDYNPISSSICHLTNESDGHTTSLYGIGFGPFIITNKHLFRRNNGTLVVQSLHGVFKVKDTTTLQQHLVDGRDMIIIRMPKDFPPFPQKLKFREPQREERICLVTTNTQTKSMSSMVSDTSCTFPSGDGIFWKHWIQTKDGQCGSPLVSTRDGFIVGIHSASNFTNTNNYFTSVPKNFMELLTNQEAQQWVSGWRLNADSVLWGGHKVFMVKPEEPFQPVKEATQL [F117T],0.113,0.0771,,0.0704,,0.0627,0.106,0.0499,0.079,,,,,,,0.0841,,,
MGESLFKGPRDYNPISSSICHLTNESDGHTTSLYGIGFGPFIITNKHLFRRNNGTLVVQSLHGVFKVKDTTTLQQHLVDGRDMIIIRMPKDFPPFPQKLKFREPQREERICLVTTNFQTKSMSSMVSDTSCTFPMGDGIFWKHWIQTKDGQCGSPLVSTRDGFIVGIHSASNFTNTNNYFTSVPKNFMELLTNQEAQQWVSGWRLNADSVLWGGHKVFMVKPEEPFQPVKEATQL [S135M],0.0825,,0.051,0.067,0.0512,0.0626,0.077,0.0591,,0.0465,0.0419,,0.0666,,0.0659,0.0585,0.0355,,0.0588
